The values that follow come from the supplement of paper PMC10670038.

Molecules are shown by their SMILES. Where a name gives a salt, the structure may show the parent alone. ± gives the standard deviation of the averaged measurements. Whole data set: some 2,000 compounds, median “relative cell viability vs DMSO, compound alone” near 1.1, cut for the lowest 2% near 0.29. This is one part of the list.

The test system of this experiment is TE10. The experiment is described as follows: relative cell viability vs DMSO, compound alone (fraction); TE10 is an esophageal squamous carcinoma line; higher = less cytotoxic. The following applies: 2 µM; 48 h. The protocol:
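TE10 ESCC cells (1,000/well, 384-well plates) were treated with Selleck bioactive library compounds at 2 uM alone for 48 h. Viability was read by CellTiter-Glo and expressed relative to DMSO wells. Two technical replicates (A, B).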
With `Nc1nc(N)nc(NC2CC2)n1` [Cyromazine], the relative cell viability was determined as 1.108 ± 0.0048.

`C=C[C@H]1CN2CC[C@H]1C[C@H]2[C@H](O)c1ccnc2ccccc12` [Cinchonidine] came in with a relative cell viability of 1.06 ± 0.018.

As to `Cc1cccc(C(C)c2c[nH]cn2)c1C` (configuration not stated) [Medetomidine HCl], the relative cell viability was 1.085 ± 0.0051.

Compound `C/C(=C\c1csc(C)n1)[C@@H]1C[C@@H]2O[C@]2(C)CCC[C@H](C)[C@H](O)[C@@H](C)C(=O)C(C)(C)[C@@H](O)CC(=O)O1` [Epothilone B (EPO906, Patupilone)] displayed a relative cell viability of 0.857 ± 0.023.

`C=CC[C@]1(O)CC[C@H]2[C@@H]3CCC4=CC(=O)CCC4=C3C=C[C@@]21C` [Altrenogest]: the relative cell viability came out at 1.115 ± 0.0019.

As to `O=c1[nH]c2ccccc2n1CCCN1CCC(n2c(=O)[nH]c3cc(Cl)ccc32)CC1` [Domperidone], the relative cell viability came out at 1.12 ± 0.041.

Regarding `O=S(=O)(CC1CS1)c1ccc(Oc2ccccc2)cc1` (configuration not stated), the relative cell viability turned out to be 1.14 ± 0.013.

`O=P1(NCCCl)OCCCN1CCCl` (configuration not stated) [Ifosfamide]: the relative cell viability was 1.28 ± 0.077.

Turning to `NC(=O)CN1CCCC1=O` [Piracetam], the relative cell viability was found to be 1.09 ± 0.018.

Take `O=S(=O)(F)Cc1ccccc1`: the relative cell viability was determined as 0.978 ± 0.021.

In the case of `O=C(O[C@H]1C[N+]2(CCCOc3ccccc3)CCC1CC2)C(O)(c1cccs1)c1cccs1` [Aclidinium Bromide], the relative cell viability came out at 0.9708 ± 0.0095.

Regarding `Cc1cc(SCc2sc(-c3ccc(C(F)(F)F)c(F)c3)nc2C)ccc1OCC(=O)O`, the relative cell viability is 1.128 ± 0.0016.

As to `CC(C)(C)[C@]1(O)CC2OC(=O)CC23C(=O)OC2OC(=O)[C@H](O)C231` (some centres not stated) [Bilobalide], the relative cell viability amounted to 1.11 ± 0.022.

With `O=C(Oc1ccc([N+](=O)[O-])cc1)N1CCC(C(O)(c2ccc3c(c2)OCO3)c2ccc3c(c2)OCO3)CC1`, the relative cell viability was found to be 1.04 ± 0.032.

In turn, `O=C1CCC[C@@H]2[C@H]3CCCN4CCC[C@@H](CN12)[C@@H]34` [(+)-Matrine] registered a relative cell viability of 1.1 ± 0.059.

Consider `Cc1cccc(C)c1NC1=NCCCS1` [Xylazine HCl], for which the relative cell viability stood at 1.11 ± 0.016.

In turn, `C[C@@H]1CC[C@H]2[C@@H](C)C(=O)O[C@@H]3O[C@@]4(C)CC[C@@H]1[C@]32OO4` [Artemisinin] showed a relative cell viability of 0.94 ± 0.19.

Consider `CCC1(c2cccc(O)c2)CCCCN(C)C1` (configuration not stated) [Meptazinol HCl], for which the relative cell viability was 0.904 ± 0.12.

In turn, `Cc1c(Cl)c(OCC(=O)N2CCN(C)CC2)nc2sc(C(=O)NC3CC3)c(N)c12` gave a relative cell viability of 1.04 ± 0.019.

Turning to `COc1ccc2c(c1)/C(=C/c1cnc[nH]1)C(=O)N2`, the relative cell viability amounted to 1.16 ± 0.054.

Regarding `COc1ccc(C[C@H]2NC[C@H](O)[C@H]2OC(C)=O)cc1` [Anisomycin], the relative cell viability is 0.328 ± 0.025.

In the case of `CCC(COC(=O)c1cc(OC)c(OC)c(OC)c1)(c1ccccc1)N(C)C` (configuration not stated) [Trimebutine], the relative cell viability amounted to 1.11 ± 0.052.

`C/C=C(\C)C(=O)N[C@@H](c1ccccc1)[C@@H](O)C(=O)O[C@H]1C[C@@]2(O)[C@@H](OC(=O)c3ccccc3)[C@@H]3[C@]4(OC(C)=O)CO[C@@H]4C[C@H](O)[C@@]3(C)C(=O)[C@H](OC(C)=O)C(=C1C)C2(C)C` [Cephalomannine]: the relative cell viability came out at 0.52 ± 0.0058.

In the case of `NCCc1c[nH]c2ccc(O)cc12` [Serotonin HCl], the relative cell viability was determined as 0.996 ± 0.16.

Compound `C[C@@]12N[C@@H](Cc3ccccc31)c1ccccc12` [(-)-MK 801 Maleate] had a relative cell viability of 1.01 ± 0.098.

The compound `CC(=O)OC12COC1CC(O)C1(C)C(=O)C(O)C3=C(C)C(O)CC(O)(C(OC(=O)c4ccccc4)C21)C3(C)C` (configuration not stated) [10-Deacetylbaccatin-III] yielded a relative cell viability of 0.817 ± 0.079.

As for `C#C[C@]1(O)C=C[C@H]2[C@@H]3CCC4=CC(=O)CC[C@@H]4[C@H]3CC[C@@]21CC` [Gestodene], the relative cell viability was found to be 0.9 ± 0.016.

`NCC(=O)O.[C-]#[O+].[C-]#[O+].[C-]#[O+].[Cl][Ru]`: the relative cell viability was found to be 0.858 ± 0.024.

For `Cc1cc(C(=O)CN2CCCC2)c(C)n1-c1ccc(F)cc1`, the relative cell viability was found to be 1.04 ± 0.12.

Consider `Cc1cccc([C@H](C)c2c[nH]cn2)c1C` [Dexmedetomidine], for which the relative cell viability was found to be 0.8337 ± 0.0044.

`Cc1cccc([C@H](C)c2c[nH]cn2)c1C` [Dexmedetomidine HCl (Precedex)] had a relative cell viability of 1.08 ± 0.027.

`CC(=O)Nc1ccc(OC[C@](C)(O)C(=O)Nc2ccc([N+](=O)[O-])c(C(F)(F)F)c2)cc1` [Andarine] returned a relative cell viability of 1.187 ± 0.01.

Take `C[C@](O)(COc1ccc(C#N)cc1)C(=O)Nc1ccc(C#N)c(C(F)(F)F)c1`: the relative cell viability was 1.2 ± 0.038.

For the compound `C[C@]12N[C@H](Cc3ccccc31)c1ccccc12` [MK-801 (Dizocilpine)], the relative cell viability was 1.04 ± 0.011.

In the case of `C[C@]12CC[C@H]3[C@@H](CC[C@@]45O[C@@H]4C(O)=C(C#N)C[C@]35C)[C@@H]1CC[C@@H]2O` [Trilostane], the relative cell viability stood at 1.08 ± 0.055.

`Cc1c(N)nc(C(CC(N)=O)NCC(N)C(N)=O)nc1C(=O)NC(C(=O)NC(C)C(O)C(C)C(=O)NC(C(=O)NCCc1nc(-c2nc(C(=O)NCCC[S+](C)C)cs2)cs1)C(C)O)C(O[C@@H]1O[C@@H](CO)[C@@H](O)[C@H](O)[C@@H]1O[C@H]1O[C@H](CO)[C@@H](O)[C@H](OC(N)=O)[C@@H]1O)c1cnc[nH]1` (some centres not stated) [Bleomycin Sulfate]: the relative cell viability was found to be 0.856 ± 0.038.

In the case of `CNCC(=O)c1ccc(O)c(O)c1` [Adrenalone HCl], the relative cell viability was 1.14 ± 0.04.

On to `CN1C2CC(O)CC1C1OC12` (configuration not stated) [Scopine], for which the relative cell viability was found to be 0.808 ± 0.14.

Turning to `CC(C)N(CCNC(=O)CN1CCCC1=O)C(C)C` [Pramiracetam], the relative cell viability came out at 1 ± 0.054.

As for `COC(=O)C1=CCCN(C)C1` [Arecoline], the relative cell viability is 0.833 ± 0.1.

`CCN(C)C(=O)Oc1cccc([C@H](C)N(C)C)c1` [Rivastigmine Tartrate]: the relative cell viability stood at 1.08 ± 0.011.

As for `CCC1(c2ccc(N)cc2)CCC(=O)NC1=O` (configuration not stated) [Aminoglutethimide], the relative cell viability was determined as 0.887 ± 0.062.

On to `C[C@]12CC[C@H](O)C[C@@H]1CC[C@@H]1[C@@H]2CC[C@]2(C)C(=O)CC[C@@H]12` [Epiandrosterone], for which the relative cell viability stood at 1.09 ± 0.031.

`C[N+]1(C)[C@@H]2C[C@@H](OC(=O)[C@H](CO)c3ccccc3)C[C@H]1[C@@H]1O[C@@H]12` [Methscopolamine] came in with a relative cell viability of 1 ± 0.027.

`CN(C)C(=O)Oc1cc(OC(=O)N(C)C)cc(C(O)CNC(C)(C)C)c1` (configuration not stated) [Bambuterol HCl] had a relative cell viability of 0.945 ± 0.023.

For the compound `NCC(O)c1ccc(O)cc1` (racemic) [(+,-)-Octopamine HCl], the relative cell viability was 0.99 ± 0.034.

`C[C@@H]1O[C@@H](O[C@H]2C[C@@H](O)[C@]3(CO)[C@H]4[C@H](O)C[C@]5(C)[C@@H](C6=CC(=O)OC6)CC[C@]5(O)[C@@H]4CC[C@]3(O)C2)[C@H](O)[C@H](O)[C@H]1O` [Ouabain] registered a relative cell viability of 0.518 ± 0.013.
